According to the supplement of paper PMC11417369:
Some of the results follow.

Each sequence was assayed on PfHDP1 homeodomain (GST-tagged) (assay: gcPBM binding intensity (ln(normalized median fluorescence intensity)); higher = stronger DNA binding).
How it was run: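 Alexa488 anti-GST antibody, scanned at 488 nm, detected GST-tagged P. falciparum DNA-binding domains that had been expressed in E. coli and incubated for 1 h on an Agilent 4 × 180k array. The array carried primer-extended double-stranded 36-bp intergenic genomic probes and negative controls. Binding intensity is the highest Masliner-normalised natural-log median intensity across replicate spots of either orientation of each probe.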

**Q.** Which “gcPBM binding intensity (ln)” value does the source give for “TTATTTATGTGTAGGGCATGCAATCGTGTTTTTAAA [TGCATGCA_site735]” here?
**A.** 8

**Q.** For “GTATTTATAATACGGCGTACATAAAAAAAAAAAAAA [XGTACX_site3705]”, which “gcPBM binding intensity (ln)” value is on record?
**A.** 6.48

**Q.** For “AAACAAATATGTAGCACACATTCACATAATATATTT [CACACA_site2335]”, which “gcPBM binding intensity (ln)” value is on record?
**A.** 7.01

**Q.** “AAAGAAAGTACCTTCACACATATAAGAATATAATAT [CACACA_site5214]” was tested. Which “gcPBM binding intensity (ln)” value did it give?
**A.** 6.41

**Q.** “AAAAAAAAAATATATTGTACAAATAGATATGTCAAT [XGTACX_site122]” was tested. Which “gcPBM binding intensity (ln)” value did it give?
**A.** 6.66

**Q.** For “TGAAATACGAATTATTGTACTTATGTGTAAGATGGC [XGTACX_site4472]”, which “gcPBM binding intensity (ln)” value is on record?
**A.** 6.93

**Q.** ATTCATTTACCAATGGTGCAATATATTTTTATAATG was tested. Which “gcPBM binding intensity (ln)” value did it give?
**A.** 10.3

**Q.** “TGTCAAAATATGTATACACACAATTTTTTTTTTTTT [CACACA_site2465]” was tested. Which “gcPBM binding intensity (ln)” value did it give?
**A.** 6.61

**Q.** How did the “gcPBM binding intensity (ln)” value turn out when “TTTTTCATAAGAAGCACACAAAAAATGATAGAGAAT [CACACA_site1417]” was run?
**A.** 7.39

**Q.** With “TAATAAATAAAATAGAGTACAGGGATTTCATTAAAT [XGTACX_site8979]” as the sequence, how does the “gcPBM binding intensity (ln)” value read?
**A.** 6.84

**Q.** “TATATTACTTATATTTGTACACAGAAATATAAATCA [XGTACX_site13]” was tested. Which “gcPBM binding intensity (ln)” value did it give?
**A.** 6.32

**Q.** Which “gcPBM binding intensity (ln)” value does the source give for “TAATATGCATAAAATTGTACAAACTTACATATAATA [XGTACX_site2752]” here?
**A.** 6.74

**Q.** “TTTTTTATAGGACATGCATGTTGTAGAGCTGTATAT [TGCATGCA_site704]” was tested. Which “gcPBM binding intensity (ln)” value did it give?
**A.** 7.09

**Q.** How did the “gcPBM binding intensity (ln)” value turn out when “TTCATAGAATTATATATTTTAAAAAAAAAAATAATT [CACACA_negctrl_site175]” was run?
**A.** 5.78

**Q.** How did the “gcPBM binding intensity (ln)” value turn out when “AATATATTTGTGTATGTGCGCAGTGTGTAATTTATT [GTGCAC_site9765]” was run?
**A.** 7.92

**Q.** “CATCTCATATTTTGAAGTACTAAGAAAAGATATAAA [XGTACX_site6867]” was tested. Which “gcPBM binding intensity (ln)” value did it give?
**A.** 6.57

**Q.** “ACGTAATTAATTCATCAGATATAATTAATAATAATA [XGTACX_negctrl_site550]” was tested. Which “gcPBM binding intensity (ln)” value did it give?
**A.** 6.42

**Q.** How did the “gcPBM binding intensity (ln)” value turn out when “ACTAAAGTGTATCACTGTACAATTCTTCTCTTTTTT [XGTACX_site8705]” was run?
**A.** 6.59

**Q.** For “ATAAATTTTTTTTTTTTTTTTTTTCTTTTTCTTTGT [CACACA_negctrl_site1231]”, which “gcPBM binding intensity (ln)” value is on record?
**A.** 5.63

**Q.** “AAAAAAAAAAAAAAAAGTACACAGTAGAATTAAATG [XGTACX_site1843]” was tested. Which “gcPBM binding intensity (ln)” value did it give?
**A.** 6.39

**Q.** With “GAACAATAAATAAAAAAAATAAAAATAAAAATAAAA [TGCATGCA_negctrl_site35]” as the sequence, how does the “gcPBM binding intensity (ln)” value read?
**A.** 6.41

**Q.** For “ATAAGTAAATTAGATACACACATGATATCATACATA [CACACA_site1623]”, which “gcPBM binding intensity (ln)” value is on record?
**A.** 6.43

**Q.** With “TTTTTTTTTTAATTAACACACATAAATATATATATA [CACACA_site3275]” as the sequence, how does the “gcPBM binding intensity (ln)” value read?
**A.** 8.11

**Q.** With “TCAATAATAACAAATGAACACACATATATATGAGCA [CACACA_site8663]” as the sequence, how does the “gcPBM binding intensity (ln)” value read?
**A.** 6.52

**Q.** How did the “gcPBM binding intensity (ln)” value turn out when “AGAAAAAAATAATGTACACACACATAGATGTTTATA [CACACA_site4271]” was run?
**A.** 6.28

**Q.** How did the “gcPBM binding intensity (ln)” value turn out when “ATAAAACAAATGAGTACACACACATAAAAATTGAAA [CACACA_site7949]” was run?
**A.** 6.67

**Q.** Which “gcPBM binding intensity (ln)” value does the source give for “TCCTCTTATAATTCGTGTCCACATATATCATACAAT [XGTACX_site1523]” here?
**A.** 7.13

**Q.** “AAAAAATACATACATACACACATATATATATATATA [CACACA_site913]” was tested. Which “gcPBM binding intensity (ln)” value did it give?
**A.** 9.37

**Q.** For “TACGGATATATATATTGTACATATATATAATATATA [XGTACX_site3156]”, which “gcPBM binding intensity (ln)” value is on record?
**A.** 6.67

**Q.** “TATATATATATTAATAGTACATATTATGTAAGCCTA [XGTACX_site2826]” was tested. Which “gcPBM binding intensity (ln)” value did it give?
**A.** 8.21

**Q.** For “TTTTTTTTTTTTTTTGTGCACAATATAATTTTTAAT [GTGCAC_site9747]”, which “gcPBM binding intensity (ln)” value is on record?
**A.** 10.8

**Q.** For “CATCATATAAATTCAAGTACAAGAAAAAGTAATATA [XGTACX_site2383]”, which “gcPBM binding intensity (ln)” value is on record?
**A.** 6.59

**Q.** For “TAAATAAAGATATATACACACATATTTATATTTATA [CACACA_site6431]”, which “gcPBM binding intensity (ln)” value is on record?
**A.** 6.31

**Q.** Which “gcPBM binding intensity (ln)” value does the source give for “AAATAATTTTTATTTGTACACACATACATATATATT [CACACA_site8240]” here?
**A.** 6.56

**Q.** Which “gcPBM binding intensity (ln)” value does the source give for “ATATCTACTTTTTTATGTACGAAAAAAATACGGATT [XGTACX_site8937]” here?
**A.** 6.41

**Q.** “ACAAAATTGAAATTCACACAAAAACTATACTTTTTA [CACACA_site4638]” was tested. Which “gcPBM binding intensity (ln)” value did it give?
**A.** 6.03

**Q.** Which “gcPBM binding intensity (ln)” value does the source give for “TATGATATAATATACACACATACATATATATATATA [CACACA_site510]” here?
**A.** 9.06

**Q.** With “TTATTCATAAAAACAAAAAACAAAAATGAAATAGGA [CACACA_negctrl_site1123]” as the sequence, how does the “gcPBM binding intensity (ln)” value read?
**A.** 6.83

**Q.** “TTAATATTTTATTTCACACACATAAATGCCCCAAAC [CACACA_site1887]” was tested. Which “gcPBM binding intensity (ln)” value did it give?
**A.** 7.49

**Q.** How did the “gcPBM binding intensity (ln)” value turn out when “AGAGTTCTCCTATGCACACAAAAAACTTTCATTTAT [CACACA_site4193]” was run?
**A.** 9.41

**Q.** With “TATTATGTCTAAAATAACATATTAATATATTATTTC [CACACA_negctrl_site285]” as the sequence, how does the “gcPBM binding intensity (ln)” value read?
**A.** 6.2

**Q.** “AATAAAAAAAAAAAAAAAAAAAAAAACCTGAGGAGT [CACACA_negctrl_site1140]” was tested. Which “gcPBM binding intensity (ln)” value did it give?
**A.** 5.96

**Q.** How did the “gcPBM binding intensity (ln)” value turn out when “AACCTTTTAAGAGTTGCACACGTACAAAAAAAAAAA [CACACA_site9159]” was run?
**A.** 8.18

**Q.** Which “gcPBM binding intensity (ln)” value does the source give for “TTTAAGCAAAGACACACACACATATTTATATTTATA [CACACA_site6295]” here?
**A.** 6.58
